From PubChem BioAssay AID686971 (National Center for Advancing Translational Sciences (NCATS), 2013)
In all, about 360,000 compounds went through this assay and about 7,500 (2.1%) were called active. The shares of active, inactive and inconclusive entries below differ from those in the screen. The call rests on the fitted dose curve; in most records, active means well fitted cell-killing curve with a large enough effect; inconclusive means small, poorly fitted or top-dose-only effect, or effect the other way, or another doubt; inactive means no such curve, though single readings can be large or run the other way. No potency is given beside an inconclusive call; the fits are too rough.

Experiment: qHTS for induction of synthetic lethality in tumor cells producing 2HG: qHTS for the HT-1080-IDH1KD cell line;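 on activity, negative = toxicity: 0% = DMSO wells and -100% = cell-free medium wells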
Settings: HT-1080 IDH1 knockdown viability, ATP luminescence, 48 h; activity, negative = toxicity: at 46.1 µM (top of the series) unless noted
Procedure, shortened: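 CellTiter-Glo luminescence after 48 h compound exposure at 37 degrees C of IDH1-knockdown HT-1080 cells in 5% FBS RPMI. %Activity scaled between DMSO wells and cell-free media wells, with curves fitted and assigned curve classes.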
Potency means the concentration at half of the fitted maximal effect; tags describe the fitted curve by direction and shape.

Question: With `N#Cc1ccsc1NC(=O)COC(=O)c1cc2ccccc2cc1O` as the compound, how does the Potency read?
Answer: inconclusive [cytotoxic, single point]

Question: Which Potency does the source give for `C/C(=N\NC(=O)C1(C)CC1(Br)Br)c1ccc(NC(=O)C2CCC2)cc1` (stereo unspecified) here?
Answer: inconclusive [cytotoxic, single point]

Question: Which Potency does the source give for `O=C(COC(=O)c1ccc(=O)n(Cc2ccccc2)n1)Nc1ccc2c(c1)OCCO2` here?
Answer: inactive

Question: With `CCOC(=O)c1sc(NC(=O)c2ccc(C)o2)nc1C` as the compound, how does the Potency read?
Answer: inconclusive [cytotoxic, single point]

Question: Which Potency does the source give for `CCOC(=O)c1cc(-c2ccncc2)nc2c1c(C)nn2C` here?
Answer: inconclusive [cytotoxic, partial curve]

Question: Which Potency does the source give for `COc1ccc(S(=O)(=O)NC(=O)C2(C)CCN2C(=O)c2cccc(F)c2)cc1` (stereo unspecified) here?
Answer: inconclusive [rising, partial curve]

Question: With `O=C(CCS(=O)(=O)c1cccc2nonc12)Nc1cccc2c1CCCC2` as the compound, how does the Potency read?
Answer: inconclusive [cytotoxic, single point]

Question: With `Cc1ccc(NC(=O)C2CCN(S(=O)(=O)c3cnc[nH]3)CC2)nc1` as the compound, how does the Potency read?
Answer: inactive

Question: With `Cc1cccc(N(C(=O)c2snc(C(N)=O)c2N)C(C(=O)NCC2CCCO2)c2ccc(N(C)C)cc2)c1C` (stereo unspecified) as the compound, how does the Potency read?
Answer: inactive

Question: For `COCCOc1cc(Nc2nnc(C(F)(F)F)s2)c(Cl)cc1Cl`, which Potency is on record?
Answer: inconclusive [cytotoxic, single point]

Question: For `COc1ccc(-c2cc3c(=O)n(CC(=O)NCCCN4CCC(Cc5ccccc5)CC4)ncn3n2)cc1`, which Potency is on record?
Answer: inconclusive [cytotoxic, partial curve]

Question: With `COc1ccccc1CCNC(=O)CSc1nnc2ccc(-c3ccncc3)nn12` as the compound, how does the Potency read?
Answer: inactive

Question: With `COc1c(Cl)cccc1-c1cn2ccccc2n1` as the compound, how does the Potency read?
Answer: inconclusive [cytotoxic, partial curve]

Question: Which Potency does the source give for `COC(=O)c1sc(N)c(C(=O)OC)c1COC(=O)CCNS(=O)(=O)c1ccc(C)cc1` here?
Answer: inconclusive [cytotoxic, partial curve]

Question: For `COc1ccc(C(=O)CC(=O)Nc2ccc([N+](=O)[O-])cc2)cc1`, which Potency is on record?
Answer: inconclusive [cytotoxic, single point]

Question: For `COc1ccccc1-n1cc(-c2ccc(C)cc2)[nH]c1=S`, which Potency is on record?
Answer: inconclusive [cytotoxic, single point]

Question: For `CC(C)N(c1ccccc1)c1ccc(NC(=O)CCl)cc1`, which Potency is on record?
Answer: inconclusive [cytotoxic, single point]

Question: For `Cc1nn2c([nH]c(=O)c3ccccc32)c1C=O`, which Potency is on record?
Answer: inconclusive [cytotoxic, single point]

Question: For `CCN(CC)CCNC(=O)c1ccc(NC(=O)c2cccc(S(=O)(=O)N3c4ccccc4CC3C)c2)cc1` (stereo unspecified), which Potency is on record?
Answer: inconclusive [cytotoxic, single point]

Question: Which Potency does the source give for `Cc1ccc(/C=C(\C#N)C(=O)Nc2ccccn2)o1` here?
Answer: inactive

Question: For `CSc1ccccc1NC(=O)CSCc1nc2sc(C)c(C)c2c(=O)[nH]1`, which Potency is on record?
Answer: inactive

Question: With `Cc1cnc(C(=O)Nc2ccccc2-c2ccc(C)o2)cn1` as the compound, how does the Potency read?
Answer: inactive

Question: Which Potency does the source give for `O=C1C2CCCCN2C(=O)N1CCCN1CCN(c2cccc(C(F)(F)F)c2)CC1` (stereo unspecified) here?
Answer: inactive

Question: Which Potency does the source give for `Cc1ccc(NC(=S)NC(NC(=O)c2ccco2)C(Cl)(Cl)Cl)cc1` (stereo unspecified) here?
Answer: inconclusive [cytotoxic, single point]

Question: Which Potency does the source give for `CC1(C)CC(=O)/C(=C\c2cccc([N+](=O)[O-])c2)C(C)(C)N1` here?
Answer: inconclusive [cytotoxic, single point]

Question: For `Cc1cc(C)c(C)c(S(=O)(=O)N2CCN(C(=O)c3ccco3)CC2)c1C`, which Potency is on record?
Answer: inactive

Question: Which Potency does the source give for `Cn1ccc2c(N3c4ccccc4CCc4ccccc43)cc3c(c21)C1CCC3C1` (stereo unspecified) here?
Answer: inconclusive [cytotoxic, single point]

Question: For `CC1=NN(c2nc(N)nc(/C(C#N)=C/c3ccc([N+](=O)[O-])o3)n2)C(C)(C)C1`, which Potency is on record?
Answer: inconclusive [cytotoxic, partial curve, poor fit]

Question: For `CCCNC(=O)c1ccc2c(=O)c(O)c(-c3cccc(Br)c3)[nH]c2c1`, which Potency is on record?
Answer: inconclusive [cytotoxic, single point]

Question: Which Potency does the source give for `O=C(NC1CC1)C1CCN(c2nc3ccccc3s2)CC1` here?
Answer: inactive

Question: For `COc1ccc(CNC(=O)c2c(N)n(CCCN3CCOCC3)c3nc4ccccc4nc23)cc1`, which Potency is on record?
Answer: inconclusive [cytotoxic, single point]

Question: With `O=C1OC(c2ccc(O)cc2)(c2ccc(O)cc2)c2ccccc21` as the compound, how does the Potency read?
Answer: inconclusive [cytotoxic, single point]

Question: For `O=C(c1ccccc1)N1CCOC(O)(c2ccccc2)C1c1ccccc1` (stereo unspecified), which Potency is on record?
Answer: inactive

Question: For `COc1ccc(NC(=O)c2cc3ccccc3cc2O)cc1`, which Potency is on record?
Answer: inconclusive [cytotoxic, single point]

Question: With `COc1ccc2nc(NC(=O)c3ccc(F)cc3)sc2c1` as the compound, how does the Potency read?
Answer: inconclusive [cytotoxic, single point]

Question: With `c1cc(Nc2ncnc3sccc23)cc(-c2nnc3n2CCCCC3)c1` as the compound, how does the Potency read?
Answer: inactive

Question: For `COc1cc(NC(=O)c2cccc(Cl)c2)c(OC)cc1NC(=O)CN1CCCCC1`, which Potency is on record?
Answer: inconclusive [cytotoxic, single point]

Question: With `Nc1nnnn1/N=C/c1ccccc1OCc1ccc(Cl)cc1Cl` as the compound, how does the Potency read?
Answer: inconclusive [cytotoxic, single point]

Question: Which Potency does the source give for `O=C1c2ccccc2C(=O)c2[nH]c(=O)[nH]c21` here?
Answer: active: 6.51 µM

Question: For `CC#CC#Cc1cccc(=O)o1`, which Potency is on record?
Answer: active: 20.6 µM

Question: With `O=C(NCCC1CCCCN1S(=O)(=O)c1cccs1)C(=O)Nc1ccc(F)cc1` (stereo unspecified) as the compound, how does the Potency read?
Answer: inconclusive [cytotoxic, single point]

Question: With `O=[N+]([O-])c1cccc(S(=O)(=O)N2CCCCC2)c1` as the compound, how does the Potency read?
Answer: inactive

Question: For `O=C(CN(C(=O)c1cccc([N+](=O)[O-])c1)C1CCCCC1)Nc1ccc(Cl)c([N+](=O)[O-])c1`, which activity, negative = toxicity is on record?
Answer: inconclusive: -2.87% [cytotoxic]

Question: With `Cc1cn(C2CC(OC(=O)C(C)C)C(CO)O2)c(=O)[nH]c1=O` (stereo unspecified) as the compound, how does the Potency read?
Answer: inactive

Question: For `c1ccc2c(c1)CC1(CCCCC1)n1nnnc1-2`, which Potency is on record?
Answer: inactive

Question: For `CCOc1cc(C(=O)NC(C)CCc2ccccc2)cc(OCC)c1OCC` (stereo unspecified), which Potency is on record?
Answer: inconclusive [cytotoxic, single point]
